Results published in the supplement of paper PMC11417369.
± gives the standard deviation of the averaged measurements. The list shows a part of the results.

system: PfAP2-EXP AP2 domain (GST-tagged); assay: gcPBM binding intensity (ln(normalized median fluorescence intensity)); higher = stronger DNA binding
How it was run: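 Binding of GST-tagged P. falciparum DNA-binding domains, expressed in E. coli and used at about 25 μg on average, was carried out for 1 h in 1× PBS containing 1% milk, 0.2 mg/ml BSA, 0.5% salmon testes DNA and 0.03% Triton X-100. The target was an Agilent 4 × 180k array of primer-extended double-stranded 36-bp intergenic genomic probes plus negative controls, read with Alexa488 anti-GST antibody at 488 nm. Binding intensity is the highest Masliner-normalised natural-log median intensity across replicate spots of either probe orientation.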

Sequence	gcPBM binding intensity (ln)
ATTTTAGAATTTAATACACACAAAAAAAAAAAATTA [CACACA_site3704]	8.38 ± 0.47
GGAAAATATGTTTGTGTGCACAGCTAGCTATTTGTA [GTGCAC_site9637]	8.84 ± 0.31
TTTTTTTTTTTCAAGCGTACAAAAAATATATTTAAA [XGTACX_site5327]	8.46 ± 0.35
AATTTTTTTTGTCTCTGTACTTATAAAATATATATG [XGTACX_site4742]	8.72 ± 0.42
AAATAAATTGATTCAACACACACATATGTAGGAAGT [CACACA_site9068]	8.97 ± 0.33
CACCCACACCAACACACACACATATATATATATATA [CACACA_site362]	10.4 ± 0.2
TATATATGGGTAACCTTTTTTTTTTTTTTTCGAACA [CACACA_negctrl_site1303]	8.22 ± 0.59
AAAAAAAATTTTAATTGTACAAAAAAAAAAAATATA [XGTACX_site2259]	8.42 ± 0.41
AAATAACAAATTTTTAAAATGTATATATATATATAT [TGCATGCA_negctrl_site219]	10.2 ± 0.74
ATTCATAATTTATTATGTACATATATATAATATATT [XGTACX_site1711]	8.46 ± 0.35
AATAAATTGGTATGTTGTACAAAGTAACCATCGATT [XGTACX_site2823]	8.69 ± 0.47
ATATCATGTTAAGATTGTACATATATATAATATATA [XGTACX_site7626]	8.35 ± 0.36
TAAAACCTTTAAAATACATGCAGCATATATAAGTAA [TGCATGCA_site181]	8.96 ± 0.35
AAGGATATAACATACACACACACACCCATATATATA [CACACA_site4142]	8.81 ± 0.2
AAAGAAATTATTTGTTGTACATATGTTATTTTTTTT [XGTACX_site7570]	8.45 ± 0.53
TGCAATTTAATATGAGTGCATATATTGAGAAAATAC	8.81 ± 0.19
TCACTTAATATTTAATGTACATAAGGTTCTTGTGCC [XGTACX_site1822]	8.51 ± 0.46
ATATTTTTTACAAATTGTACATTTTTACAATTATTA [XGTACX_site7496]	8.59 ± 0.35
TAACCTAAAATAACTACACACACATAAAAAAAAAAA [CACACA_site8807]	8.57 ± 0.47

Sequence	gcPBM binding intensity (ln)
TATAAATTAAAATGTGTGCACTAAATTGAAATAGAA	9.04 ± 0.099
ATATATATATATAATAGTACATATATTTTTATTGGT [XGTACX_site711]	9.87 ± 0.28
ATTATTACATTTTTATGTACATATCAAATTTATACA [XGTACX_site7332]	8.61 ± 0.31
TTAACTTAAGGAGAGTGTACAAATAATAAAATATCT [XGTACX_site4118]	8.78 ± 0.43
TTAAAATATGAATAATGTACAAGAAATTTTATTAAT [XGTACX_site6314]	8.47 ± 0.32
AAAAAAAATTTATGGGGTACATATTATAATATTATA [XGTACX_site3395]	8.8 ± 0.56
TTATATAACATTATTTGTACATATAAAATATGGATG [XGTACX_site8526]	8.3 ± 0.28
ATGTATGAATTACATAGTACATAAGAAAAAATGAAG [XGTACX_site5942]	9.04 ± 0.38
GTAGTGGTTGAATATACACACATATATAAATAAATA [CACACA_site7282]	8.56 ± 0.45
GTTTTCATCCAAAAAAGTACATTTATTTTTATACGA [XGTACX_site1039]	8.45 ± 0.41
AAATATAAAGTGCACACACACAAAAAAAGAAAAAAA [CACACA_site6452]	8.73 ± 0.35
GGAAAATCTTTATAATGTACATTATGATTATATAAT [XGTACX_site6256]	8.71 ± 0.76
TTATTTTTTTTAAATTGTACAAGGAACAGTGAAAAA [XGTACX_site4380]	9.02 ± 0.34
TTTGTGTGTACGCGTGTGCACATTTTTTTTTTTTTT	8.725 ± 0.021
TAAATGTCTTCAATGAAGTGGAAATGCTGTTATATA [CACACA_negctrl_site1155]	8.45 ± 0.51
TATATAACCTATAGCACACATATATAATATATATTA [CACACA_site1834]	8.64 ± 0.25
TTCTATTCAAATGCAAAATTATTAAATAAAAAATAA [GTGCAC_negctrl_site708]	8.47 ± 0.49
AAACGTGTGTATAATAGTACATAATTATAACGTAAT [XGTACX_site421]	8.82 ± 0.38
AAATTTGGCAAACACACACACACACCCACAGAGACA [CACACA_site4490]	8.73 ± 0.49

Sequence	gcPBM binding intensity (ln)
CGTATTTTTGGACATGCATGTACAAATAATCTTATG [TGCATGCA_site973]	9.14 ± 0.33
TTGGGCATAATGTCATGTACACAAATAATTCTTTAT [XGTACX_site861]	8.54 ± 0.43
ATATATGGAGCTTATACACACTTTTATATTTTAACA [CACACA_site7757]	8.48 ± 0.4
TAAGTTTTGTTCTTTTGTACATATAAGTATAGATCG [XGTACX_site4735]	8.48 ± 0.33
AATGTTTTTGTGAGATGTATAAATTTTATTTTATTT [XGTACX_negctrl_site413]	8.38 ± 0.38
AAAAAAATAATGTACACACACATATAGGTTTATATA [CACACA_site192]	8.45 ± 0.38
TATAGATTTATATACACATGCATTTTGGTAAAGAAA [TGCATGCA_site953]	8.8 ± 0.36
AAATATATTTCTTTTTTTCTTATTATTAATTTGCTT [CACACA_negctrl_site1483]	8.54 ± 0.52
TTATAATAAATATTCATATGTTCAAATATATATATA [CACACA_negctrl_site624]	9.625 ± 0.021
TTTATTTATTATTATGTACACACTATATTAAAACAT [CACACA_site700]	8.73 ± 0.31
TATTTTTTTAATAACTGTACTTTTTTGTCAAATGGA [XGTACX_site4179]	8.44 ± 0.085
ATTGTAAGTAGACACACACACATATAGATGTATATA [CACACA_site6463]	8.63 ± 0.42
TTAAAATTATAATACGTACACACCTTATCTTTTTGG [CACACA_site278]	8.74 ± 0.36
ATATATAACGGGCACACACACATTTACGTATGAATA [CACACA_site1833]	8.79 ± 0.5
TGTTGTTTTATGTTGTATTGTAATATATTATATTAT [XGTACX_negctrl_site46]	8.92 ± 0.4
GGCGTATGTGTATATACACACCCACGTATATATATA [CACACA_site9046]	9.16 ± 0.16
TTAGGATTGAAGAGTTGTACATACCTCTTATTTGTT [XGTACX_site1376]	8.39 ± 0.52
ATCATATATTATTTATGTACTTATTTATAATAATAT [XGTACX_site8257]	8.45 ± 0.62
TATAAAATGTAATCTGAACACACATATTTTTTTAAT [CACACA_site8521]	8.11 ± 0.37
